Measurements reported in patent US9902766B2, “Antibodies to endoplasmin and their use” (University of Pittsburgh—Of The Commonwealth System of …, priority 2010, dated 2018).
“Also recorded” adds a separate entry of the source.

Tests used:
[1] = tested on: panel of human cell lines; assay: cell ELISA of soluble scFv W9 with a panel of human cell lines; type: binding
Experimental: FIG. 1B. Differential reactivity with the melanoma cell line WM1158 and with the B lymphoid cell line LG2 of the scFv W9 isolated by panning a phage display antibody library with WM1158 cells. WM1158 cells were plated in a 96-well plate and incubated with scFv W9 for 2 hours at room temperature.
FIG. 2. Reactivity of scFv W9 with many types of human cell lines. Six melanoma, four breast, one head and neck squamous cell, three pancreas, one bladder, one lung, one epithelial, one colon, one renal, one prostate, and one ovarian cancer cell lines were plated in a 96-well plate and incubated with scFv W9 for 2 hours at room temperature. The binding of scFv was detected using c-myc-specific mAb 9E10 and HPR-streptavidin. scFv W9 reacted with all the melanoma cell lines, with two breast cancer cell lines, and with head and neck squamous cell, pancreas, bladder, lung, epithelial, renal, ovarian and glioma cancer cell lines.
(§1) Results are expressed as absorbance of optical density (O.D.) at 450 nm.
The synthetic phage scFv library (#1) was subjected to four rounds of panning with WM1158 cells. Isolated phages were absorbed with cultured human LG-2 B lymphoid cells to remove the phages binding to the Ags shared by human cells. Soluble scFvs were produced from 80 clones and tested for reactivity with melanoma cells in a cell ELISA. […] The reactivity was specific since no reactivity with LG-2 cells was detected. The scFv #119, which recognizes an irrelevant antigen, was used as a negative control (FIG. 1).
When tested by ELISA with a panel of human cell lines, the soluble scFv W9 reacted with melanoma (MV3, COLO38, SK-MEL-28, M14, FO-1), basal breast cancer (SUM149, MDA-MB-435s), head and neck (PCI-13), pancreatic (PANC 2.03, PANC 3.27, PANC 10.05), bladder (T24), lung (A549), epidermoid (A431), cervical (HeLa), renal (SLR21), ovarian (OVCAR3), and glioma (U-138, A-172) cancer cell lines.

normal tissues = assay: immunohistochemical analysis of scFv W9 immunoreactivity with normal tissues; type: binding, human; conditions: biopsies of at least two patients
Text: The results from an immunohistochemical analysis of scFv W9 immunoreactivity with normal tissues is presented below. Results are related to biopsies of at least two patients tested (+Positive).

[2] = target: T1, WM1158 melanoma cell lysate (Homo sapiens, UniProt P14625); assay: immunoprecipitation with scFv W9 and mass spectrometry of the band; type: binding; conditions: tryptic peptides SEQ ID NO: 7 and 8
T1 construct: A WM1158 melanoma cell lysate was immunoprecipitated with scFv W9; endogenous in cells; host or cells: WM1158 human melanoma cells (lysate)
Text: FIGS. 3A and 3B. Identification of endoplasmin as the antigen recognized by scFv W9. A WM1158 melanoma cell lysate was immunoprecipitated with scFv W9. The -HLA class I-specific mAb TP25.99, and the HMW-MAA-specific scFv C21 were used as controls. Proteins in the precipitates were resolved on a reducing 10% SDS-PAGE and stained with Coomassie blue. The 94-KDa was unique to the W9 precipitate (A). Same results were obtained from lysates of T24 (bladder cancer), SUM149 (breast cancer), and SLR21 (renal cancer) cell lines. The specific bands were excised from the SDS gel and analyzed by mass spectrometry. Amino acids 102-115 of SEQ ID NO: 5 and amino acids 434 to 449 of SEQ ID NO: 5 are shown. The human protein identified in the 94-KDa bands is endoplasmin (SEQ ID NO: 5).
WM1158 cells (3×10^7) were washed, pelleted, and lysed in 1.5 ml of lysis buffer (50 mmol/L Tris, 4 mmol/L EDTA, 150 mmol/L NaCl, 0.5% NP40 containing 1 mmol/L phenylmethylsulfonyl fluride) containing protease inhibitors. Following a 30 min of incubation on ice, the cell lysate was spun at 13,000×g for 30 min at 4° C. The supernatant was collected, precleared by incubation with PG-Sepharose (Amersham Pharmacia Biotech AB, Uppsala, Sweden), and transferred to a tube containing 15 μl of packed protein G Sepharose, previously armed with 15 μg of mAb 9E10 and the periplasmic preparation of scFv W9, and 119 (negative control). […]

COLO38 cells [3] = assay: ELISA binding of scFv W9 to tunicamycin treated cells; set-up: species or system human; conditions: tunicamycin 0.5 μg/ml, 72 hours, DMSO alone as control
Experimental: FIG. 4. Role of carbohydrates in the expression of the determinant recognized by scFv W9. COLO38 cells were cultured for 72 hours in the presence of 0.5 μg/ml of tunicamycin. Cells incubated in medium with DMSO alone, and the mAb TP25.99 were used as controls. Cells were tested by ELISA for the binding of scFv W9. Cells were incubated with scFv W9 for 2 hours at 4° C. The binding of scFv was detected using mAb 9E10 and HPR-goat anti-mouse IgG antibodies. […] Thus, carbohydrates play a role in the expression of the determinant recognized by scFv W9.
COLO38 cells were cultured in the presence of 0.5 μg/ml of tunicamycin (MP Biomedicals, Solon, Ohio, USA) for 72 hours at 37° C. in a 5% CO2 atmosphere. Cells incubated in medium with DMSO alone were used as a control.

[4] = target: T2, recombinant canine Endoplasmin (Grp94) (Canis lupus familiaris, UniProt P41148); assay: ELISA reactivity with recombinant canine endoplasmin (Grp94); type: binding
T2 construct: purchased Stressgen Biothecnology Corporation (Victoria, British Columbia, Canada)
Text: FIGS. 5A and 5B. […] The binding of scFv was detected using mAb 9E10 and HPR-goat anti-mouse IgG antibodies. Absorbance was read at 450 nm scFv 119 and BSA were used as negative controls. scFv W9 recognizes a determinant of endoplasmin expressed on the cell membrane.
as §1

COLO38 cells [5] = assay: inhibition by recombinant canine Grp94 of scFv W9 binding to cells; set-up: species or system human; conditions: two fold dilutions of RC-Grp94 preincubated with scFv W9; β2-microglobulin control
Experimental: FIG. 6. Dose-dependent inhibition by recombinant canine enodplamsin (Grp94) of scFv W9 binding to COLO38 cells. […] The mixture was added to 96-well plate seeded with COLO38 cells. The binding of scFv was detected using mAb 9E10 and HPR-goat anti-mouse IgG antibodies. Absorbance was read at 450 nm. B2m was used as a control.

293 cells = assay: flow cytometry binding of scFv W9 to electroporated, transfected 293 cells; set-up: species or system human; conditions: cells transfected with Grp94 cDNA and with the plasmid alone, 24 hours, versus untransfected cells
Experimental: FIGS. 7A and 7B. […] 293 cells were transfected with 3 μg of Grp94 HSP90B 1 cDNA clone by electroporation. Cells were incubated with scFv W9 and mAb 9E10, followed by incubation with FITC-goat anti-mouse IgG antibodies. Cells were analyzed by flow cytometry. The pCMV6-XL4 vector was used as a control. Untrasfected cells were used as a control. Electroporation increases the binding of scFv W9. The expression of the antigen recognized by scFv is regulated by heat shock.
293 cells were transfected with 3 μg of Grp 94 HSP90B 1 cDNA clone (Origene) using the Amaxa nucleofection technology and following the manufacturer's instructions (Amaxa, Cologne, Germany). The nucleofector program Q-001 was used. After transfection, cells were immediately suspended in 500 μl of pre-warmed DMEM culture medium supplemented with 10% FBS and plated in 6-well plates in a humidified 37° C., 5% CO2 incubator for 24 hours. Transfection efficiency was determined by flow cytometric analysis of GFP. The pCMV6-XL4 vector was used as a control. Transfection with Lipofectamine 2000 (Invitrogen, Carlsbad, Calif., USA) was performed according to the manufacturer's instructions.
The transfection efficiency (94%) was assessed by GFP expression. […] Cells were analyzed by flow cytometry. […]

FO-1 cells = assay: flow cytometry binding of scFv W9 to cells transduced with Grp94 shRNA; set-up: species or system human; conditions: 72 hours after transduction, compared with control shRNA
Experimental: FIGS. 8A and 8B. […] Cells were incubated with scFv W9 and mAb 9E10, followed by incubation with FITC-goat anti-mouse IgG antibodies.
After 72 hours from transduction cells were harvested, incubated with scFv W9 and mAb 9E10, followed by incubation with FITC-goat anti-mouse IgG antibodies. Cells were analyzed by flow cytometry.

T2 sequence (P41148 22-804): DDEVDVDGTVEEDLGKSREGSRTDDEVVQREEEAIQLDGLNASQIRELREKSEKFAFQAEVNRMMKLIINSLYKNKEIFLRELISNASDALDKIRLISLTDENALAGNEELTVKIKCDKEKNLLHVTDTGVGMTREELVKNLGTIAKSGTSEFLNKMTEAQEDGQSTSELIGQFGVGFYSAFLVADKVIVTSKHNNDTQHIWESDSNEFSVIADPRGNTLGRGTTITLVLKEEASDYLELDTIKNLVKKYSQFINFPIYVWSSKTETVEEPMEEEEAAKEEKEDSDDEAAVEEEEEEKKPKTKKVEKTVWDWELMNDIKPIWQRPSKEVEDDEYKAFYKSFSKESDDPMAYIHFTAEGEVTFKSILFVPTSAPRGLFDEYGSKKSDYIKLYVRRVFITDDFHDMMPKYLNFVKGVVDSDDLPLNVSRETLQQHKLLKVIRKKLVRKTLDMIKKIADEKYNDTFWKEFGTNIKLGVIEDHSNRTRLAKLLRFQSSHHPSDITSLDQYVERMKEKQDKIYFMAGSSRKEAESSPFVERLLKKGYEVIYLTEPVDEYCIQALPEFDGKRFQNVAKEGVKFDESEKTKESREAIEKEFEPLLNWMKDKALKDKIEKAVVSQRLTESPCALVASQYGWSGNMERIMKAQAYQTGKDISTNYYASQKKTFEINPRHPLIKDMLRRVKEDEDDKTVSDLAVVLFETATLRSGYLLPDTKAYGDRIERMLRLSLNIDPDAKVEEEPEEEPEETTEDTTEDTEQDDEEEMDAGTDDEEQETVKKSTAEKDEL
T1 sequence (P14625 22-803): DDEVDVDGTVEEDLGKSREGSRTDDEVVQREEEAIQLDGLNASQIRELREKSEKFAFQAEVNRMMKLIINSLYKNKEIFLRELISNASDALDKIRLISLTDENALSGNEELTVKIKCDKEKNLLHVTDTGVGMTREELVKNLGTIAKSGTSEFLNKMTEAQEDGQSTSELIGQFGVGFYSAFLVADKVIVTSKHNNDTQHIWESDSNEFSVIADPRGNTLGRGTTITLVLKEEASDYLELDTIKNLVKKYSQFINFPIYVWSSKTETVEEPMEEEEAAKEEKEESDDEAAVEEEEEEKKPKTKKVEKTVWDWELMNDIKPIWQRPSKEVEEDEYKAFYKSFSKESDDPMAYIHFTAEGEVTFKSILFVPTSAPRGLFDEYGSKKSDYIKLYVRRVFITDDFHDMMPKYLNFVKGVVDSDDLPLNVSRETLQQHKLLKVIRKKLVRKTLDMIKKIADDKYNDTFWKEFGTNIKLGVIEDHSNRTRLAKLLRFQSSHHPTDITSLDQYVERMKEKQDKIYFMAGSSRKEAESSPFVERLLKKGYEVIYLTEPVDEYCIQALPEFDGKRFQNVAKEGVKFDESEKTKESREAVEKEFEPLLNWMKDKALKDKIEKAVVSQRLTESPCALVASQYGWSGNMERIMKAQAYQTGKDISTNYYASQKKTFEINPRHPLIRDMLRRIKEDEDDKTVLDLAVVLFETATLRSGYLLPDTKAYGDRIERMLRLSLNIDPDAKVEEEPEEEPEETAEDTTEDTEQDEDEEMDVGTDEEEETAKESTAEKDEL

B1: scFv W9: human scFv fragment isolated from a synthetic phage scFv library by panning with melanoma cell line WM1158; binds endoplasmin (Grp94) (antibody, V domains shown)
VH: QVQLVQSGAEVKKPGASVKVSCKASGYTFTSYAMHWVRQAPGQRLEWMGWINAGNGNTKYSQKFQGRVTITRDTSASTAYMELSSLRSEDTAVYYCARAHFDYWGQGTLVTVS
VL: EIELTQSPSSLSASVGDRVTIT[omitted - about 80 residues]FGQGTKVEIK
modifications: left off: another chain or arm of the molecule; small tags and cut ends
- reactivity in cell ELISA ([1]; 40-16 colon cancer cell line): did not react
- reactivity in cell ELISA ([1]; A431 epidermoid cancer cell line): reacted
- reactivity in cell ELISA ([1]; A549 lung cancer cell line): reacted
- reactivity in cell ELISA ([1]; A-172 glioma cell line): reacted
- reactivity in cell ELISA ([1]; COLO38 melanoma cell line): reacted
- reactivity in cell ELISA ([1]; Du145 prostate cancer cell line): did not react
- reactivity in cell ELISA ([1]; FO-1 melanoma cell line): reacted
- reactivity in cell ELISA ([1]; HeLa cervical cancer cell line): reacted
- reactivity in cell ELISA ([1]; LG-2 B lymphoid cell line): did not react
- reactivity in cell ELISA ([1]; LG-2 B lymphoid cell line, listed as scFv named W9): no reactivity
- reactivity in cell ELISA ([1]; M14 melanoma cell line): reacted
- reactivity in cell ELISA ([1]; MCF-7 luminal breast cancer cell line): did not react
- reactivity in cell ELISA ([1]; MDA-MB-435s basal breast cancer cell line): reacted
- reactivity in cell ELISA ([1]; MV3 melanoma cell line): reacted
- reactivity in cell ELISA ([1]; OVCAR3 ovarian cancer cell line): reacted
- reactivity in cell ELISA ([1]; PANC 2.03 pancreatic cancer cell line): reacted
- reactivity in cell ELISA ([1]; PANC 3.27 pancreatic cancer cell line): reacted
- reactivity in cell ELISA ([1]; PANC 10.05 pancreatic cancer cell line): reacted
- reactivity in cell ELISA ([1]; PCI-13 head and neck cancer cell line): reacted
- reactivity in cell ELISA ([1]; SK-MEL-28 melanoma cell line): reacted
- reactivity in cell ELISA ([1]; SLR21 renal cancer cell line): reacted
- reactivity in cell ELISA ([1]; SUM149 basal breast cancer cell line): reacted
- reactivity in cell ELISA ([1]; T24 bladder cancer cell line): reacted
- reactivity in cell ELISA ([1]; T47D luminal breast cancer cell line): did not react
- reactivity in cell ELISA ([1]; U-138 glioma cell line): reacted
- reactivity in cell ELISA ([1]; WM1158 melanoma cell line): reacts specifically
- reactivity in cell ELISA ([1]; WM1158 melanoma cell line, listed as scFv named W9): strongly reacted
- immunoreactivity with normal tissue (IHC) (normal tissues; Brain Cortex): negative
- immunoreactivity with normal tissue (IHC) (normal tissues; Breast): negative
- immunoreactivity with normal tissue (IHC) (normal tissues; Colon-rectum): negative
- immunoreactivity with normal tissue (IHC) (normal tissues; Kidney): negative
- immunoreactivity with normal tissue (IHC) (normal tissues; Liver): negative
- immunoreactivity with normal tissue (IHC) (normal tissues; Lung): negative
- immunoreactivity with normal tissue (IHC) (normal tissues; Pancreas): negative
- immunoreactivity with normal tissue (IHC) (normal tissues; Parotid): acinar epithelium only: +
- immunoreactivity with normal tissue (IHC) (normal tissues; Prostate): negative
- immunoreactivity with normal tissue (IHC) (normal tissues; Skin): sweat gland only: +
- immunoreactivity with normal tissue (IHC) (normal tissues; Spleen): negative
- immunoreactivity with normal tissue (IHC) (normal tissues; Stomach): negative
- immunoreactivity with normal tissue (IHC) (normal tissues; Testis): negative
- immunoreactivity with normal tissue (IHC) (normal tissues; Thyroid): negative
- antigen identified in the immunoprecipitated band by tandem mass spectrometry [2]: endoplasmin (Grp94)
- binding to cells cultured with tunicamycin (ELISA) (COLO38 cells [3]): strong decrease; also recorded: markedly reduced; also recorded: did not react
- binding to BSA (ELISA) ([4]; BSA negative control antigen): no binding
- reactivity with endoplasmin (Grp94) canine recombinant protein (ELISA) ([4]; RC-Grp94 immobilized at 20 μg/well, 2 hours room temperature, dose dependent): specifically reacted
- inhibition by RC-Grp94 of scFv W9 binding to COLO38 cells (COLO38 cells [5]): specifically inhibits; also recorded: dose dependent and specific
- binding to electroporated 293 cells (flow cytometry) (293 cells): strong increase
- effect of Grp94 shRNA on binding of scFv W9 (flow cytometry) (FO-1 cells): significantly inhibited
